Laboratory results from publication PMC4336329 (PLoS ONE, 2015).
Among all 310,000 compounds or so, about 14,000 (4.5%) showed an effect of 50% or more. The effect is printed as a negative number. This is one part of the list.

Molecular target: human ether-à-go-go-related gene (hERG) potassium channel (human, UniProt Q12809)
Test: primary screen, population patch clamp on CHO cells stably expressing hERG
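Note: peak tail current of the secondary pulse compared with the same well before compound.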

human ether-à-go-go-related gene (hERG) potassium channel, sequence (Q12809 whole entry, looked up): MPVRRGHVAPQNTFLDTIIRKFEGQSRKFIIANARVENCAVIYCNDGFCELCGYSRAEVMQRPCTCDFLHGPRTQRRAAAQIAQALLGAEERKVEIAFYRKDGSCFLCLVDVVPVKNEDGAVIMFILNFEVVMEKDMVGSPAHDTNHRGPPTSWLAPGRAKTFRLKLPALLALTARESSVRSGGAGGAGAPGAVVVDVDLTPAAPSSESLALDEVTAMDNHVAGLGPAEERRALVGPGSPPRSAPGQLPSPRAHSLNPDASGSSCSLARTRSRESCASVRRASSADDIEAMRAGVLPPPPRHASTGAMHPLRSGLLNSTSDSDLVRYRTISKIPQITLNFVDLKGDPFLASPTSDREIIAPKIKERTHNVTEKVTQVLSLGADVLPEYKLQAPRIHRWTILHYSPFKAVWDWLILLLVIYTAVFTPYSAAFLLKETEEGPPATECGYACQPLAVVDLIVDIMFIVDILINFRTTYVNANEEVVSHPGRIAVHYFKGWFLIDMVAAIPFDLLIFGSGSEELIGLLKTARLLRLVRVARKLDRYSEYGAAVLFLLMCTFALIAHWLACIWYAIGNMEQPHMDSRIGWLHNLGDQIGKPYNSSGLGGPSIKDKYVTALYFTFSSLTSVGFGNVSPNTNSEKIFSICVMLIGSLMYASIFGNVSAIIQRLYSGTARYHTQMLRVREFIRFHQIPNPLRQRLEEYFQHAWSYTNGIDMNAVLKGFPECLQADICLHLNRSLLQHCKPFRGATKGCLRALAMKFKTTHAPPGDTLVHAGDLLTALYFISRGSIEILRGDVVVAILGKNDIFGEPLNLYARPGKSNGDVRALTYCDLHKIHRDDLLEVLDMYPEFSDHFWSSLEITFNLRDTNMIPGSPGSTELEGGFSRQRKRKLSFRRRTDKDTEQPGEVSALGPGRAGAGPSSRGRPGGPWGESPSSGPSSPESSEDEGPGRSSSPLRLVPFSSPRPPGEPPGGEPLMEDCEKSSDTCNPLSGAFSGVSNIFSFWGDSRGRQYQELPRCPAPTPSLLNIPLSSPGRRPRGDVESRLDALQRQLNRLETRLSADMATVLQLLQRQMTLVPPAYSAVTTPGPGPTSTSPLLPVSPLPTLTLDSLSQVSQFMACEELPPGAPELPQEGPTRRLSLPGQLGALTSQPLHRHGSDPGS

First: CCOC(=O)c1ccc(NC(=O)CSc2nc(=O)n(CCN3CCOCC3)c3c2CCC3)cc1
Second: Cn1c(CNC(=O)c2ccc(Cl)cc2)nnc1SCC(=O)N1CCOCC1
The “hERG current change (%, negative = inhibition) at 10uM” value of the first is lower: -32% for the first, 15.4% for the second.

Compared with `Cc1cc(C)n(-c2nc(-c3ccc(Cl)c(Cl)c3)cs2)n1`, `Cc1cc2nc(-c3ccc[nH]c3=O)[nH]c2cc1C` is higher in “hERG current change (%, negative = inhibition) at 10uM” value: 4.19% for the first, 15.4% for the second.

Compared with `COc1ccc(Nc2ncccc2C(=O)O)cc1`, `CC(=O)Oc1ccc(Nc2ccccc2)cc1` is higher in “hERG current change (%, negative = inhibition) at 10uM” value: 1.98% for the first, 19% for the second.

First: Cc1ccc(-c2nc(SCC(=O)NCC3CCCO3)c(-c3ccc(Cl)cc3)[nH]2)cc1 (stereo not shown)
Second: Cc1ccc(SCC(=O)Nc2cc(C)on2)cc1
The “hERG current change (%, negative = inhibition) at 10uM” value of the first is higher: 8.85% for the first, 7.34% for the second.

First: O=C(CCNC(=O)c1ccccc1Cl)NCC(c1ccc(F)cc1)N1CCOCC1 (stereo not shown)
Second: O=C(NC(=O)N1CCN(c2ccc(F)cc2)CC1)c1ccccc1
The “hERG current change (%, negative = inhibition) at 10uM” value of the first is higher: 8.07% for the first, -27.5% for the second.

First: Cc1nnc2sc(-c3ccccn3)nn12
Second: Cc1sc2ncnc(-n3nnc4ccccc43)c2c1C
The “hERG current change (%, negative = inhibition) at 10uM” value of the first is higher: 18.2% for the first, -16.8% for the second.

Compared with `CC(C)(C)c1cnnn1-c1ccc(C(=O)CCl)cc1`, `O=C(CSc1nnc2ccccn12)c1ccc(Cl)cc1` is higher in “hERG current change (%, negative = inhibition) at 10uM” value: -21.6% for the first, -0.78% for the second.

First: COc1ccc(CCNC(=O)c2c([S-])n(-c3ccc(C)cc3)c3cccc[n+]23)cc1
Second: COc1ccccc1NC(=O)Cn1nnc(C(=O)NCCc2ccccc2)c1N
The “hERG current change (%, negative = inhibition) at 10uM” value of the first is lower: -14.1% for the first, 11.6% for the second.

Going from `O=C(NC1(C(F)(F)F)Oc2ccccc2O1)N1CCCC1` to `O=C(NCC(=O)N1CCN(c2ccccc2O)CC1)c1ccco1`, the “hERG current change (%, negative = inhibition) at 10uM” value falls from -8.28% to -8.76%.

Compared with `COc1ccc(S(=O)(=O)N2CCC(C(N)=O)CC2)cc1`, `O=C(NC1CCCC1)c1cccc(S(=O)(=O)N2CCCCC2)c1` is lower in “hERG current change (%, negative = inhibition) at 10uM” value: 6.5% for the first, -10.7% for the second.

First: C=CCn1c(COc2ccc(CC)cc2)nnc1SCC(=O)NC1CCS(=O)(=O)C1 (stereo not shown)
Second: Cc1cccc(OCc2nnc(SCC(=O)N3CCc4ccccc43)n2C)c1
The “hERG current change (%, negative = inhibition) at 10uM” value of the first is lower: -14.1% for the first, -5.99% for the second.

Going from `O=C(CC1OC(=O)c2ccccc21)NCC1COc2ccccc2O1` (stereo not shown) to `CC12CC(c3ccccc3O1)C(C(=O)OCc1ccccc1)C(=O)N2` (stereo not shown), the “hERG current change (%, negative = inhibition) at 10uM” value rises from -32.7% to 1.51%.

Going from `COc1ccc(NC(=S)N(CCO)Cc2cc3c(C)cc(C)cc3[nH]c2=O)cc1` to `CC(=O)Nc1ccc(NC(=O)c2cc(=O)c3ccc(C)cc3o2)cc1`, the “hERG current change (%, negative = inhibition) at 10uM” value rises from -48.8% to 17.4%.

Compared with `c1ccc(OCCCc2nc(-c3cccnc3)no2)cc1`, `COCCCNC(=O)COc1ccc(S(=O)(=O)Nc2ccccc2)cc1` is higher in “hERG current change (%, negative = inhibition) at 10uM” value: -14.2% for the first, -12.4% for the second.

Compared with `COCc1cc(C2C(C(=O)c3ccco3)=C(O)C(=O)N2CCOCCO)ccc1O` (stereo not shown), `Cc1oc2ccc(OCc3cccc(Cl)c3)cc2c1C(=O)O` is higher in “hERG current change (%, negative = inhibition) at 10uM” value: 10.6% for the first, 21.6% for the second.

Going from `CCn1ncc(C2=NOC(C(=O)Nc3cccc(C(C)=O)c3)C2)c1C` (stereo not shown) to `C/C(=N\NC(=O)c1ccccc1O)c1cccc(NC(=O)c2ccccc2)c1`, the “hERG current change (%, negative = inhibition) at 10uM” value rises from -12.6% to -0.335%.

First: COc1ccc(C(=O)NCC(c2ccco2)N(C)C)cc1S(=O)(=O)NCc1ccc(Cl)cc1 (stereo not shown)
Second: Cc1ccc(S(=O)(=O)N(C)c2ccc(OC(=O)c3cccs3)cc2)cc1C
The “hERG current change (%, negative = inhibition) at 10uM” value of the first is lower: -32.6% for the first, 16.9% for the second.

Going from `CCN(CC)c1ccc(C(=O)NN)cc1` to `NNC(=O)c1ccc(CSc2nc3ccccc3s2)cc1`, the “hERG current change (%, negative = inhibition) at 10uM” value falls from 8.76% to 6.09%.

Going from `COc1ccc(/C=N/OCC(=O)Nc2nc3ccccc3s2)cc1` to `COc1ccc(C(=O)CCc2ccc(OC)c(OC)c2)cc1`, the “hERG current change (%, negative = inhibition) at 10uM” value falls from -8.89% to -10.3%.

Compared with `CCOc1ccccc1Oc1nc(-c2ccccc2O)nc2ccccc12`, `CC(=O)Nc1ccc(Nc2c3ccccc3nc3ccccc23)cc1` is lower in “hERG current change (%, negative = inhibition) at 10uM” value: 15.5% for the first, -55.7% for the second.

First: O=C(N/N=C/c1ccc([N+](=O)[O-])cc1)c1ccccc1OCc1ccccc1
Second: O=C(O)c1ccc(/C=N/NC(=O)c2cc(-c3ccc4c5c(cccc35)CC4)n[nH]2)cc1
The “hERG current change (%, negative = inhibition) at 10uM” value of the first is lower: 1.19% for the first, 18.1% for the second.

Going from `CC(=O)C1=NOC2C(=O)N(c3ccc(Cl)cc3)C(=O)C12` (stereo not shown) to `CCOC(=O)C1(CC)NC(c2ccco2)C2C(=O)N(c3ccc(C)cc3)C(=O)C21` (stereo not shown), the “hERG current change (%, negative = inhibition) at 10uM” value falls from 15.9% to 6.82%.

First: Cn1c(CNC(=O)C(Cc2ccccc2)NC(=O)c2cccc(F)c2)cc(=O)n(C)c1=O (stereo not shown)
Second: O=C(Nc1ccccc1)Nc1ccc(F)cc1F
The “hERG current change (%, negative = inhibition) at 10uM” value of the first is lower: -5.24% for the first, 10.9% for the second.

Going from `CCOC(=O)CSc1nnc(-c2ccncc2)o1` to `N#Cc1cccc(-c2nnc(SCc3ccccc3C#N)o2)c1`, the “hERG current change (%, negative = inhibition) at 10uM” value falls from 13.5% to -14.4%.

First: COC(=O)COn1c(SCC(=O)OC)nc2ccccc2c1=O
Second: COc1cc(OC)c(OC)cc1/C=C/c1cc(C(=O)O)c2ccccc2n1
The “hERG current change (%, negative = inhibition) at 10uM” value of the first is lower: -15.7% for the first, 12.1% for the second.

First: Cc1ccc(C)c(N2CCN(C(=O)CN3C(=S)NC(C)(C)CC3C)CC2)c1 (stereo not shown)
Second: CCOC(=O)N1CCN(c2cc(=O)n(-c3ccccc3Cl)c(=O)[nH]2)CC1
The “hERG current change (%, negative = inhibition) at 10uM” value of the first is lower: 8.14% for the first, 14.1% for the second.

Compared with `Cc1cc(/C=C(/C#N)C(=O)O)c(C)n1-c1cccc2ccccc12`, `O=C(CN1CCOCC1)Nc1ncc(Cc2cccc3ccccc23)s1` is lower in “hERG current change (%, negative = inhibition) at 10uM” value: 20.1% for the first, -23.3% for the second.

Going from `C=CCN(c1ccccc1C(=O)NCC(=O)O)S(=O)(=O)c1ccccc1C` to `O=S(=O)(Cc1ccccc1Cl)Nc1ccccn1`, the “hERG current change (%, negative = inhibition) at 10uM” value falls from 24.7% to -1.18%.

Going from `Cc1nn(C(C)C(=O)NC2CCC(C)CC2)c(=O)c2nn(-c3ccccc3)c(C)c12` (stereo not shown) to `Cc1ccc(C(=O)OCC(=O)NN2C(=O)NC3(CCC(C)CC3)C2=O)cc1` (stereo not shown), the “hERG current change (%, negative = inhibition) at 10uM” value rises from -28.3% to 2.78%.

Going from `COc1ccc([N+](=O)[O-])cc1N(CC(=O)NC(C(C)C)C(C)C)S(C)(=O)=O` to `COc1ccc([N+](=O)[O-])cc1NC(=O)c1ccc(Br)s1`, the “hERG current change (%, negative = inhibition) at 10uM” value rises from -20% to 2.86%.

Compared with `N#CC1=C(N)OC2=C(C(=O)CCC2)C1CCc1ccccc1` (stereo not shown), `CC(CCc1ccco1)NC(=O)c1cccc2c1C(=O)N(C1CCCCC1)C2` (stereo not shown) is higher in “hERG current change (%, negative = inhibition) at 10uM” value: -6.93% for the first, -6.82% for the second.

Going from `CCc1ccc(C(=O)COC(=O)c2cncc(Br)c2)cc1` to `CCc1ccc(NC(=O)CN2CCc3ccccc3C2)cc1`, the “hERG current change (%, negative = inhibition) at 10uM” value falls from -20.7% to -34.2%.

First: C=C(C)c1cccc(C(C)(C)NC(=O)NCC2CCCO2)c1 (stereo not shown)
Second: O=C(NNC(=S)NCC1CCCO1)c1ccc(S(=O)(=O)N2CCOCC2)cc1 (stereo not shown)
The “hERG current change (%, negative = inhibition) at 10uM” value of the first is lower: 3.74% for the first, 5.93% for the second.

First: CN1CCN(C2CCN(c3cccc(Cl)c3)CC2)CC1CCO (stereo not shown)
Second: COCCNC(=O)/C(C#N)=C/c1c(N2CCN(c3cccc(Cl)c3)CC2)nc2c(C)cccn2c1=O
The “hERG current change (%, negative = inhibition) at 10uM” value of the first is higher: 12.9% for the first, -3.5% for the second.

Going from `CSc1ncccc1C(=O)OCC(=O)N(C)C` to `COc1nc(SCC(=O)Nc2ccccc2Cl)nc(N(C)C)n1`, the “hERG current change (%, negative = inhibition) at 10uM” value falls from 6.49% to 3.1%.

Compared with `O=C(NNC(=O)c1ccc2c(=O)n3c(nc2c1)CCC3)c1ccc(F)cc1`, `CC(=O)Nc1ccc(S(=O)(=O)NNC(=O)c2ccc(S(=O)(=O)N3CCCCC3)cc2)cc1` is higher in “hERG current change (%, negative = inhibition) at 10uM” value: -4.34% for the first, 6.41% for the second.

Going from `O=C1N=C(N2CCOCC2)S/C1=C\c1ccncc1` to `COc1ccc(CNc2ccc(N3CCOCC3)cc2)cc1`, the “hERG current change (%, negative = inhibition) at 10uM” value rises from -2.19% to 16.8%.

First: CCOc1cccc(Nc2cc3n(c(=O)n2)CCc2cc(OC)c(OC)cc2-3)c1
Second: COc1cc2c(OC(C)=O)c3c(c(-c4ccc5c(c4)OCO5)c2cc1OC)C(=O)OC3
The “hERG current change (%, negative = inhibition) at 10uM” value of the first is lower: -17.4% for the first, 15.4% for the second.

Compared with `COc1ccc(C2=CC(c3sccc3C)n3nnnc3N2)cc1` (stereo not shown), `Fc1ccc(-n2nnc(-c3ccccc3Cl)n2)cc1` is higher in “hERG current change (%, negative = inhibition) at 10uM” value: 2.05% for the first, 12.2% for the second.

First: COc1cc(OC)cc(C(=O)NCCc2cnc[nH]2)c1
Second: COc1cc(C(=O)Nc2cc(C)ccn2)ccc1OCC(=O)N1CCOCC1
The “hERG current change (%, negative = inhibition) at 10uM” value of the first is higher: 22.7% for the first, -8.72% for the second.

Compared with `CCCCOCCCN1CC(=O)N2C(C)c3[nH]c4ccccc4c3C[C@H]2C1=O` (stereo partly shown), `CCOC(=O)c1c(CS(=O)(=O)c2ccccc2)n(C)c2cc(Br)c(O)c(CN(C)C)c12` is lower in “hERG current change (%, negative = inhibition) at 10uM” value: -3.57% for the first, -50.4% for the second.

First: Cc1ccc(C(=O)/C=C/C(=O)O)cc1
Second: Cc1ccc(CC(=O)Nc2nc3c(s2)CCCC3)cc1
The “hERG current change (%, negative = inhibition) at 10uM” value of the first is higher: 7.47% for the first, -9.39% for the second.

First: COCCN(CC(=O)NCc1ccc(OC)cc1)C(=O)CCC(=O)Nc1nccs1
Second: CN(C)C(=S)Nc1ccc(Cc2ccncc2)cc1
The “hERG current change (%, negative = inhibition) at 10uM” value of the first is lower: -8.1% for the first, 13.4% for the second.

First: C/C(CC(C)C)=N\Nc1ccc(S(N)(=O)=O)cc1[N+](=O)[O-]
Second: CSCCC(NS(=O)(=O)c1ccccc1F)C(=O)NCCCn1nc(C)cc1C (stereo not shown)
The “hERG current change (%, negative = inhibition) at 10uM” value of the first is higher: 0.529% for the first, -1.49% for the second.

Compared with `O=C1CCCN1CN(C(=O)c1ccccc1)c1ccccc1`, `O=C(Nc1ccc(Br)cc1)C1CCN(C(=O)c2ccco2)CC1` is lower in “hERG current change (%, negative = inhibition) at 10uM” value: -7.7% for the first, -14% for the second.

With `Cc1ccccc1NC1(C#N)CCCCC1` the “hERG current change (%, negative = inhibition) at 10uM” value was -1.06%.
